The whole screen tested about 360,000 compounds, of which about 7,500 (2.1%) were called active. The inconclusive results got no clear call from the source; some entries with a clear call stand among them for comparison. Calls follow the shape of the dose curve; as a rule, active = well fitted cell-killing curve with a large enough effect; inconclusive = small, poorly fitted or top-dose-only effect, or effect the other way, or another doubt; inactive = no such curve, though single readings can be large or run the other way. Potencies of inconclusive entries are left out as doubtful fits.
Assay: qHTS for induction of synthetic lethality in tumor cells producing 2HG: qHTS for the HT-1080-IDH1KD cell line;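 as to activity, negative = toxicity: 0% = DMSO wells and -100% = cell-free medium wells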
Conditions: HT-1080 IDH1 knockdown viability, ATP luminescence, 48 h; activity, negative = toxicity: at 46.1 µM (top of the series) unless noted
In short: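 Assay cells: HT-1080 with IDH1 knockdown, 750 per well, RPMI/5% FBS. Exposure: 48 h at 37 °C following 2 h pre-incubation. Read: CellTiter-Glo luminescence; fitted concentration-response, curve class assigned.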
Potency is read from the fitted curve at half-maximal effect; tags tell the direction and shape of the fitted curve.

Compound	Potency	activity, negative = toxicity
COc1cccc(/C=N/Nc2cc(N3CCOCC3)ncn2)c1O	active: 5.8 µM	–
O=C(Nc1cccc(F)c1)c1sc(Cl)nc1-c1ccccc1	–	inactive: 2.03%
CN(C)CCn1c(NC(=O)c2ccc(Cl)cc2)nc2ccccc21	active: 11.2 µM	–
CC(C)c1ccc(C(=O)Nc2ccc(N3CCOCC3)cc2)cc1	inconclusive [cytotoxic, partial curve]	–
COC(C(=O)N/N=C(\C)c1ccc(C(C)(C)C)cc1)c1ccccc1 (stereo unspecified)	inconclusive [cytotoxic, partial curve]	–
COc1ccc(CCC(=O)Nc2cccc(S(=O)(=O)N3CCOCC3)c2)cc1OC	–	inactive: -5.26%
Cc1cc([N+](=O)[O-])cc(/C=N\NC(=O)C2COc3ccccc3O2)c1O (stereo unspecified)	inconclusive [cytotoxic, single point]	–
CCN(CC)S(=O)(=O)c1ccc(NC(=O)c2cc(-c3cccs3)nc3ccccc23)cc1	inconclusive [cytotoxic, partial curve]	–
CC(C)(C)c1ccc(OCCNC(=S)Nc2ccccc2)cc1	active: 16.4 µM	–
COc1ccc(-n2ncc3c2CC(C)(C)CC3NC(=O)CCCN2CCCC2=O)cc1 (stereo unspecified)	inconclusive [rising, single point]	–
Cc1cccc(N2C(=O)CC(Sc3nc(C)c4c(n3)CCCC4)C2=O)c1 (stereo unspecified)	active: 10 µM	–
CC(C)c1ccc(CC(C)C2C3=C(CCCC3=O)OC3=C2C(=O)CCC3)cc1 (stereo unspecified)	inconclusive [cytotoxic, single point]	–
Oc1ccccc1Nc1nc(NCc2ccccc2)c2ccccc2n1	inconclusive [cytotoxic, single point]	–
Cc1cccc(C)c1NC(=O)N1CCN(c2nc3ccccc3s2)CC1	inconclusive [cytotoxic, single point]	–
COc1cccc2c1OCC(C(=O)O)C2 (stereo unspecified)	inconclusive [rising, single point]	–
Cc1ccc(/C=N/NC(=O)c2cc(-c3ccc(C)o3)[nH]n2)cc1	active: 20.6 µM	–
COCc1cc(=O)[nH]c(Nc2nc3ccccc3o2)n1	inconclusive [cytotoxic, single point]	–
O=C(Cn1c(C(F)(F)F)nc2ccccc21)Nc1ccccc1C(=O)O	inconclusive [cytotoxic, single point]	–
CC(=O)N1CCc2ccc(S(=O)(=O)N3CCc4ccccc43)cc21	–	inactive: -14.5%
CCCn1c(NC(=O)c2ccc([N+](=O)[O-])o2)nc2ccccc21	inconclusive [cytotoxic, single point]	–
Cc1ccc(OCC(O)Cn2c3ccccc3c3ccccc32)cc1 (stereo unspecified)	inconclusive [cytotoxic, single point]	–
CSC(=NC#N)N1CCN(c2ccccn2)CC1	inconclusive [rising, single point]	–
CC(C)(C)c1ccc(S(=O)(=O)NCC(=O)Nc2ccc(-c3nc4ccccc4s3)cc2)cc1	inconclusive [cytotoxic, single point]	–

Compound	Potency	activity, negative = toxicity
Cc1cc2ccccn2c1C(=O)c1ccccc1F	inconclusive [cytotoxic, single point]	–
COC(=O)c1ccc(C(=O)OC)c(NC(=O)C(C)C)c1	–	inactive: 16.4%
CC(C)(Oc1ccc(Cl)cc1)C(=O)NCC1CCCO1 (stereo unspecified)	–	inactive: -9.8%
COc1cc(S(=O)(=O)n2c(C)nc3ccccc32)ccc1F	inconclusive [cytotoxic, single point]	–
CC(C)(C)c1ccc(Cn2nnc3c(=O)[nH]c(C4CCN(C(=O)c5ccco5)CC4)nc32)cc1	inconclusive [cytotoxic, single point]	–
O=C(Nc1ccccc1Cl)c1cccc(COc2cc(Cl)ccc2Cl)c1	inconclusive [cytotoxic, single point]	–
O=C(Nc1ccccc1C(=O)N1CCN(CCO)CC1)c1cccc([N+](=O)[O-])c1	inconclusive [rising, single point]	–
O=C(Nc1ccc(N2CCOCC2)c(Cl)c1)c1ccc([N+](=O)[O-])o1	active: 4.61 µM	–
COc1ccc(C2c3ccc(O)cc3Oc3ncn4nc(-c5ccncc5)nc4c32)cc1OC (stereo unspecified)	–	inactive: -0.364%
COc1cc(/C=C2\SC(=Nc3ccccc3OC)NC2=O)ccc1O	active: 7.31 µM	–
COc1ccc(OC)c(Nc2nc(-c3sc(NC(=O)C(C)(C)C)nc3C)cs2)c1	inconclusive [cytotoxic, partial curve, poor fit]	–
O=C1/C(=C\c2ccc(Br)cc2)SC(=S)N1NS(=O)(=O)c1ccccc1	inconclusive [cytotoxic, single point]	–
O=C(NNC(=O)c1ccc(Cl)cc1Cl)c1cnccn1	inconclusive [cytotoxic, single point]	–
C[C@@H]1COC(=O)[C@@H](Cc2ccc(F)cc2)C/C=C\C[C@@H](CC(=O)N(CCO)Cc2ccccc2)C(=O)N1	–	inactive: 4.17%
C/C(=N\Nc1cc(-c2ccccc2)nc(-c2ccc(Br)cc2)n1)c1cccc(N)c1	active: 17.8 µM	–
COc1ccc(C(NC(C)=O)c2cc(Cl)c3cccnc3c2O)cc1 (stereo unspecified)	active: 11.6 µM	–
COc1cc2c(cc1OC)C(c1ccc(-c3ccc(Cl)c(Cl)c3)o1)=NCC2	active: 23.1 µM	–
COc1ccccc1CNc1ccc(N2CCCCC2)cc1	inconclusive [cytotoxic, single point]	–
CCN1C(=O)/C(=C/c2ccc(N3CCCC3)cc2)NC1=S	–	inactive: -12.7%
CCOC(=O)[C@]12CCC=C1N(Cc1cccc3ccccc13)C(=O)[C@H](CC(=O)NCC13CC4CC(CC(C4)C1)C3)C2	–	inactive: -20.9%
Cc1ccc(C)c(C(=O)OCC(=O)Nc2cccc(S(=O)(=O)N3CCCCC3)c2)c1	inconclusive [cytotoxic, single point]	–
CC(C)c1ccc(/C=N/NC(=O)c2ccccc2Cl)cc1	active: 6.51 µM	–
O=C(N/N=C/c1cc([N+](=O)[O-])ccc1O)c1cccc(N2CCCC2=O)c1	inconclusive [cytotoxic, partial curve]	–

— PubChem BioAssay AID686971 (National Center for Advancing Translational Sciences (NCATS), 2013)
